Source: the supplement of paper PMC11417369
± gives the standard deviation of the averaged measurements. The list shows a part of the results.

These sequences were tested on PfAP2-EXP AP2 domain (GST-tagged) (assay: gcPBM binding intensity (ln(normalized median fluorescence intensity)); higher = stronger DNA binding).
Outline: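 Binding intensity is defined as the maximum Masliner-normalised natural-log median intensity across replicate spots for either probe orientation. It was measured on an Agilent 4 × 180k array of primer-extended double-stranded 36-bp intergenic genomic probes and negative controls, to which GST-tagged P. falciparum DNA-binding domains made in E. coli were applied for 1 h in 1× PBS with 1% milk, 0.2 mg/ml BSA, 0.5% salmon testes DNA and 0.03% Triton X-100. Detection was by Alexa488 anti-GST antibody and scanning at 488 nm.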

Sequence | gcPBM binding intensity (ln)
TTACAACATGAAAATGTGCACATATATATATATATA | 10.2 ± 0.29
TAAATTTATAGACACACACACATATAAATAAATATA [CACACA_site6530] | 8.72 ± 0.47
TGAATTAAGATTTATTGTACATAATTTATACCATAT [XGTACX_site7034] | 8.47 ± 0.16
AATGTGCTCGCTATTACACACTCATTGGGATAAACT [CACACA_site7043] | 8.56 ± 0.4
TATATATATATATATTGTACATTTACCAAATTGTGT [XGTACX_site5791] | 10.1 ± 0.25
ATATAATATATATATTGTACATATATTTATAAGCAT [XGTACX_site3726] | 8.38 ± 0.19
TTTAATAATAATACTAGTACACATTCTTTATTATTT [XGTACX_site2671] | 8.72 ± 0.4
TTTTTTTTTTTTTGCACACTTAAATTTGGAGTGTAG [CACACA_site2345] | 8.34 ± 0.41
TATATAAATAAATATACACACATATATAAATATACA [CACACA_site2982] | 8.32 ± 0.33
AAAGTAAAAAATCATAGTACACATTTAAATATATAT [XGTACX_site2323] | 8.72 ± 0.36
TTTTTTAAATTATGTAGTACGATTCATTTTTTATAA [XGTACX_site1101] | 8.34 ± 0.33
GGTATATATTTATAATGTACATATTCATATATATAA [XGTACX_site3291] | 8.45 ± 0.39
TAATATATCAAATGAAGTACTCACATATACATAATA [XGTACX_site6051] | 8.53 ± 0.35
AATATCTTAGTGGATACACACATATAAATGTGGATT [CACACA_site485] | 8.22 ± 0.42
AAGATTTTCCTTGATAGTACACTTATGAAAATTTGT [XGTACX_site3047] | 8.53 ± 0.26
TTTTTTTTTTTTTTTTTTTTTTTGTCTTATTTTTTT [GTGCAC_negctrl_site338] | 7.84 ± 0.31
ATATATTACGACTTCTGTACATAATATATAAAAGAA [XGTACX_site2353] | 8.61 ± 0.33
AAAAAAAAAAAAAAATGTACATATATATAAATATAT [XGTACX_site6768] | 8.34 ± 0.4
TATTTATATGTATATACATGCACATATATATGAAAC [TGCATGCA_site1005] | 9.01 ± 0.42
TATGTAATGTTTACAACACACAAATTATAAATACAA [CACACA_site1771] | 8.38 ± 0.4
ATATATATATATATATGTACATATTTTTATTTATAC [XGTACX_site2858] | 10.2 ± 0.3
ACCTATATACTAAATGCACACTTATATATTTATATA [CACACA_site5371] | 8.86 ± 0.19
CTATTTTATATGTGCACACATATACTCAGACAAATA [CACACA_site4761] | 9.05 ± 0.25

Sequence | gcPBM binding intensity (ln)
AAATTAATACATTATTGTACTTTTCATGTGCAGAAA [XGTACX_site8284] | 8.42 ± 0.21
TAATTCGCATTTTATACACACATTCGAACCTTTTTT [CACACA_site7549] | 8.99 ± 0.42
CGGATGAATATATATGCACACATCTTTTGTAAAAAT [CACACA_site3190] | 8.51 ± 0.38
CATATTACATTAAATTGTACATATATATATATATAT [XGTACX_site3295] | 10 ± 0.33
TGTATAAATATATGCACACATATATATATTTATATA [CACACA_site3473] | 8.31 ± 0.27
GAGAAAAAAAAAAAAAAACACACGGTACATTCAAAG [CACACA_site1767] | 8.56 ± 0.51
TCAATAAATGAATATGCATGCACGCTCTTTAGAGAT [TGCATGCA_site553] | 9.72 ± 0.085
ATATTTATAAATTGCACACAAATAATAACATTCTAT [CACACA_site2357] | 8.43 ± 0.31
AATTGGGAAGGACATGCATGAGAAATTAATATTGCA [TGCATGCA_site424] | 8.87 ± 0.43
TATTATTATTATGGTAGTACATGTAGGTTATTAAAA [XGTACX_site5742] | 8.72 ± 0.35
TCAATTTTACTTGTTTGTACATAAAATAATAAGGTT [XGTACX_site3732] | 8.44 ± 0.47
AAGAAAAAAAAAATTACACACTGCGGACATACACAA [CACACA_site4838] | 8.79 ± 0.54
AACATACACATATACACACACACATATATACCTATA [CACACA_site6643] | 8.79 ± 0.45
ATATTTTGTTTTTGTTCTTTTTTTTTCTTTTTTTTT [CACACA_negctrl_site1342] | 8.69 ± 0.59
TATATTAAATGAAACAAACACACATAGCCTTTAAAT [CACACA_site1559] | 8.79 ± 0.64
ACTTTGCTCTACAATGCATGCTCATTTAACAAGGCA [TGCATGCA_site676] | 9.59 ± 0.3
ATATCTACTATACAACTGAGTGTAGAAAAATTAAAC [CACACA_negctrl_site1211] | 8.87 ± 0.34
ATACGAAAAAAAAAAAGTACACAAAAATATCTACAT [XGTACX_site2051] | 8.54 ± 0.43
ATTATATTAGGTAATCAGTTAAATGTTTCCTTTTTA [CACACA_negctrl_site1229] | 8.35 ± 0.43
AAAATATGGATTCATGATATTAAATTTAATTTAATG [XGTACX_negctrl_site214] | 8.21 ± 0.48
ATATAAATAATGTTGACACACACAATAATCTTATTA [CACACA_site9197] | 8.28 ± 0.41
GTTATACTCATATATACACACATATGTAAATATATA [CACACA_site5764] | 8.94 ± 0.58
TTTATATAATTTTGTGGTACTTATGTGTGTATATTA [XGTACX_site706] | 8.62 ± 0.51

Sequence | gcPBM binding intensity (ln)
TAAATTATCTTTTTATGTACTTATTTTTATTATTTT [XGTACX_site3158] | 8.65 ± 0.36
AAAAAAAAAAAAAGTACACACTTATAAAATATTATG [CACACA_site4639] | 8.29 ± 0.39
CGCGCACCCAGACACACACACACACCGATATATATA [CACACA_site8687] | 8.73 ± 0.45
TATTTTCAACATATTTGTACATATTTTATATTTTAA [XGTACX_site101] | 8.65 ± 0.35
ATTATGATTTTATAGAACTGAACATTTACATTAAAT [GTGCAC_negctrl_site192] | 8.32 ± 0.45
TGCATACTAGCCAATTGTACATAATTTTATTTTAAA [XGTACX_site513] | 8.53 ± 0.26
AAAAGGAACAGACACACACACATATATATATATATA [CACACA_site3587] | 10.3 ± 0.25
AAAATAAATCTGAATGGGGTATAATATATCTTTGTT [CACACA_negctrl_site744] | 8.29 ± 0.47
ATAACAAAATAAAACACACACACAAATGTACTTATA [CACACA_site8768] | 8.61 ± 0.38
ATTTATTATATATACACACATACATATATATATATA [CACACA_site2159] | 9.91 ± 0.42
AAAAAATTCTGGTACTGTACACATTTTTTTAAATTT [XGTACX_site6904] | 8.51 ± 0.29
TGCTTTTATTTCTTCACACATATGTAAAAAAAAGAA [CACACA_site5906] | 8.76 ± 0.42
ATATGAGAGAATAAAACACACAAAAAAAAAAAAAAA [CACACA_site2865] | 8.12 ± 0.58
GTAGCCTTTCTTTATAAAGGCAAACAAACAAAAAAT [CACACA_negctrl_site1491] | 8.65 ± 0.42
TAATAATCAAGTTAACGTACAAAATCATCTATAGAA [XGTACX_site5921] | 8.73 ± 0.44
TGTATGTATTTTCAATGTACATAAAAAAAAAAAAAA [XGTACX_site4397] | 8.32 ± 0.4
TATTTTTTTTGTTAGGTGCATTTACATTTATTTTTA | 9.02 ± 0.32
TTATATAGGCAGATGGTGCATCTATTTATAAGCAAC | 8.78 ± 0.15
AAAAATTAAAAGAAAATACACACCTGTGGGTGCTTA [CACACA_site1988] | 8.05 ± 0.35
AAAAAAAAAAGTTCTACACACACAAAAAAATATTTT [CACACA_site8725] | 8.57 ± 0.86
TATAATATAATTAAAAGTACTTAAAAAAGAATGAAA [XGTACX_site1157] | 8.9 ± 0.4
TGTTTATATAATATTCTACACACCAACAACAAACAT [CACACA_site8087] | 8.95 ± 0.4
TATTTTTATAAAAATCGTACAAGTGATCCAATTTTT [XGTACX_site4402] | 8.55 ± 0.37

Sequence | gcPBM binding intensity (ln)
TTTTTAAAACATATCACACATATATATATATATATA [CACACA_site5991] | 10.3 ± 0.41
CCGTATTCAAAAAGGAGTACACAATTATATGTTATA [XGTACX_site641] | 8.61 ± 0.23
TAAATATATTCATAAAGTACAAAGCAAAATTGTCTA [XGTACX_site7274] | 8.5 ± 0.41
GAAATAAATATATATGCATGTACTTTAATATTATTA [TGCATGCA_site904] | 8.57 ± 0.16
GTGCTTATTTATACATGTACAAATGATAAGTTTGTA [XGTACX_site169] | 8.86 ± 0.2
AGGTGATTGATATATACACACATACCTATATTTATA [CACACA_site7348] | 8.36 ± 0.35
TGTTTATTTAATAATATTTTTTTTTTTATTATATTA [XGTACX_negctrl_site56] | 8.08 ± 0.58
TTTTTTCTTTTATGTGAAATGTAATATTGTTATATA [GTGCAC_negctrl_site715] | 8.21 ± 0.49
TTATTAAAATATTCTAGTACATATAAAAGGAGAACA [XGTACX_site4374] | 8.9 ± 0.3
ATATAAAGAAAAGGAACACACAAATATATATATATA [CACACA_site463] | 10.1 ± 0.31
ATATATTATTTTAAATGTACTCATAATAGAAATGTC [XGTACX_site40] | 8.53 ± 0.099
CACACAGGTAAAAAGGTGCAGTTGAAATATTCCTCA [GTGCAC_site9730] | 8.63 ± 0.17
AAATAAAAGGTTGAGAGTACATTTTTGTGTATGTAT [XGTACX_site5547] | 8.46 ± 0.4
AAAAAAAAAATACAACAAAGTTAAATAAATAAATAA [GTGCAC_negctrl_site402] | 8.45 ± 0.34
AGCTCTCAAAATTATTCACACGTGTCCTGTTATATA [CACACA_site5415] | 9.26 ± 0.47
ATATTTCATTAATGAACACACAAAGAGGTATATAAA [CACACA_site1519] | 8.93 ± 0.4
ATATTTAAAAATATAGTGCAATTATTCTAATGTGTT | 8.32 ± 0.15
CACGCACGCACATACACACACATACACATATAAATA [CACACA_site6907] | 8.78 ± 0.34
ATGTTGTTCATAAATATATTATTTTTAAATGTACAA [GTGCAC_negctrl_site507] | 8.32 ± 0.36
ATATATTCACGTTAATGTACACATAATAAATTATAT [XGTACX_site5481] | 8.62 ± 0.36
